{"source": "PubChem BioAssay (Tox21)", "key": {"[1]": {"test": "qHTS assay to identify small molecule antagonists of the thyroid receptor (TR) signaling pathway - cell viability counter screen (AID 743064); as to all read-outs here: nearly all actives have a fitted effect of over 50% in size", "conditions": "GH3.TRE-Luc viability, CellTiter-Fluor, 24 h; activity change, negative = cytotoxic: at 70.3 µM (top of the series) unless noted", "in_short": "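GH3.TRE-Luc rat pituitary cells dosed after 4 hr plating, co-stimulated with T3 at 1 nM final, incubated 23.5 h at 37 C. Viability measured in the same wells by CellTiter-Fluor fluorescence after 30 min further at 37 C.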"}, "[2]": {"test": "qHTS assay to identify small molecule antagonists of the thyroid receptor (TR) signaling pathway (AID 743065); as to all read-outs here: nearly all actives have a fitted effect of over 55% in size", "in_short": "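GH3.TRE-Luc rat pituitary cells (two TREs driving luciferase) were dosed with compound, then stimulated with 1 nM T3 (final) for 23.5 h at 37 C. ONE-Glo luminescence was the read-out, with CellTiter-Fluor fluorescence as the cytotoxicity counter-screen.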"}, "[3]": {"target": "Estrogen receptor (Homo sapiens) (UniProt P03372)", "sequence (P03372 whole entry, looked up)": "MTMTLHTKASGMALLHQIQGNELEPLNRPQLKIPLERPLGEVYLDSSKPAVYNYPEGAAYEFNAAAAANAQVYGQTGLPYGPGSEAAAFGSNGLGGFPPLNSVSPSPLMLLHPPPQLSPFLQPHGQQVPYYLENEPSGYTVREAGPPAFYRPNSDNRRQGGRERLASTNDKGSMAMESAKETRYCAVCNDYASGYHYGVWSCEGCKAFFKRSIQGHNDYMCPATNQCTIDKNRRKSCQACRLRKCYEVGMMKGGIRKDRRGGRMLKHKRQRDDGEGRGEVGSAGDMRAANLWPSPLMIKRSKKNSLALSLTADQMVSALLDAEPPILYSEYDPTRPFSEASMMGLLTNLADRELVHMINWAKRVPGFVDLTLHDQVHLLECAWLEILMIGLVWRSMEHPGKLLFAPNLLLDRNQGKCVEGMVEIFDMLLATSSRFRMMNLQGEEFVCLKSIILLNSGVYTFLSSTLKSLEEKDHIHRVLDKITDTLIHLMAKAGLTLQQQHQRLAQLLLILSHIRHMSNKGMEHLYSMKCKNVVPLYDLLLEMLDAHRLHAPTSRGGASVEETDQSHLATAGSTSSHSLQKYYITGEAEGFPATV", "test": "qHTS assay to identify small molecule antagonists of the estrogen receptor alpha (ER-alpha) signaling pathway (AID 743069; active = well fitted curve in the direction sought with a large enough effect in the signal ratio in the repeat runs, not every such curve was filed as active; inconclusive = weak or mixed curves, or effect the other way; inactive = no such curve, though single readings can be large or run the other way; the % refers to the signal ratio; as to activity, negative = inhibition: % is scaled to controls: 0 for no effect and ±100 for the full control effect)", "conditions": "HEK293 ER-alpha-UAS-bla, beta-lactamase ratio, antagonist mode; for Potency: activity, negative = inhibition: at 69.4 µM (top of the series) unless noted", "in_short": "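In this cell-based reporter format, GripTite HEK293 cells harbouring ER-alpha-UAS-bla were grown overnight with 2% charcoal-stripped FBS, dosed with DMSO-dissolved compounds, then challenged with 17beta-estradiol. After 18 hr at 37C, beta-lactamase activity was detected by FRET fluorescence.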"}, "[4]": {"test": "qHTS assay to identify small molecule antagonists of the estrogen receptor alpha (ER-alpha) signaling pathway - cell viability counter screen (AID 743074; calls by dose curve; also: nearly all actives have a fitted effect of over 45% in size)"}, "[5]": {"target": "Estrogen receptor (Homo sapiens) (UniProt P03372)", "test": "qHTS assay to identify small molecule agonists of the estrogen receptor alpha (ER-alpha) signaling pathway using the BG1 cell line (AID 743079); also: nearly all actives have a fitted effect of over 20% in size; as to activation: % is scaled to controls: 0 for no effect and ±100 for the full control effect", "conditions": "BG1Luc4E2 cells, ERE-luciferase agonist, 22 h; activation: at 70.3 µM (top of the series) unless noted"}, "[6]": {"test": "qHTS assay to identify small molecule antagonists of the estrogen receptor alpha (ER-alpha) signaling pathway using the BG1 cell line (AID 743080; calls by dose curve; also: nearly all actives have a fitted effect of over 25% in size; as to activity change, negative = inhibition: % is scaled to controls: 0 for no effect and ±100 for the full control effect)", "conditions": "BG1Luc4E2 ERE-luciferase antagonist mode, luminescence; activity change, negative = inhibition: at 70.3 µM (top of the series) unless noted", "in_short": "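After 5 days in phenol-red-free 10% charcoal-stripped FBS medium, BG1-Luc-4E2 cells were seeded, left 24 h at 37 C, co-treated with compounds and 17beta-estradiol for 21.5 h, then assayed for viability and luciferase.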"}, "[7]": {"target": "Peroxisome proliferator-activated receptor gamma (Homo sapiens) (UniProt P37231)", "sequence (P37231 whole entry, looked up)": "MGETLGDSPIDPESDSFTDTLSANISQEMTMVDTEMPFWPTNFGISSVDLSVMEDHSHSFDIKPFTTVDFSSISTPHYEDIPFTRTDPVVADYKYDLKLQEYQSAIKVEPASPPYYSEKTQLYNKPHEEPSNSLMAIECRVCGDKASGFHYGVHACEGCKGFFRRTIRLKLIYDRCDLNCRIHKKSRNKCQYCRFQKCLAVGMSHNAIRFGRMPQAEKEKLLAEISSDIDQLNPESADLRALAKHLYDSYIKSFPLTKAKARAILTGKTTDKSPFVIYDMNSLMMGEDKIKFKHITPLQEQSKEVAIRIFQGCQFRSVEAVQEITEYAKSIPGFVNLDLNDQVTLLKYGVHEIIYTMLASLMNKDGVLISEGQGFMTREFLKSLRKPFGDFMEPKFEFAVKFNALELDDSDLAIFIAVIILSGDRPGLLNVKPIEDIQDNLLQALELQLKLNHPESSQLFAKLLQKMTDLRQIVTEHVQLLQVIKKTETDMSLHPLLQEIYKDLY", "test": "qHTS assay to identify small molecule agonists of the peroxisome proliferator-activated receptor gamma (PPARg) signaling pathway (AID 743094; active = well fitted activation curve with a large enough effect in the signal ratio in the repeat runs, not every such curve was filed as active; inconclusive = weak or mixed curves, or effect the other way; inactive = no such curve, though single readings can be large or run the other way; the % refers to the signal ratio; as to activation: % is scaled to controls: 0 for no effect and ±100 for the full control effect)", "conditions": "HEK293H PPARg-UAS-bla, beta-lactamase FRET ratio, 17 h", "in_short": "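Reporter activation was scored by fluorescence of cleaved LiveBLAzer B/G substrate (1 h, room temperature) in PPARg-bla HEK293H cells previously treated 17 h at 37C with DMSO-dissolved compounds.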"}, "[8]": {"test": "qHTS assay to identify small molecule antagonists of the estrogen receptor alpha (ER-alpha) signaling pathway using the BG1 cell line - cell viability counter screen (AID 743081);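 also: compound given together with 17beta-estradiol as the ER stimulus; nearly all actives have a fitted effect of over 45% in size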", "conditions": "BG1Luc4E2 viability, CellTiter-Fluor, 22 h; activity change, negative = cytotoxicity: at 70.3 µM (top of the series)"}, "[9]": {"test": "qHTS assay to identify aromatase inhibitors - cell viability counter screen (AID 743084);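 also: cells stimulated with testosterone during compound exposure; nearly all actives have a fitted effect of over 55% in size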", "conditions": "MCF-7 aro ERE viability, CellTiter-Fluor, 24 h; activity change, negative = cytotoxicity: at 70.3 µM (top of the series) unless noted"}, "[10]": {"test": "qHTS assay to identify small molecule that activate the aryl hydrocarbon receptor (AhR) signaling pathway - cell viability counter screen (AID 743086); also: nearly all actives have a fitted effect of over 45% in size", "in_short": "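HepG2-AhR-luc (HG2L7.5c1) cells, 4000/well, treated 24 h at 37 C with compound; viability measured as CellTiter-Fluor fluorescence after 30 min in the same wells as the luciferase read.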"}, "[11]": {"system": "thyroid hormone receptor (rat, GH3 cells)", "test": "qHTS assay to identify small molecule agonists of the thyroid receptor (TR) signaling pathway (AID 743066; calls by dose curve)", "conditions": "GH3.TRE-Luc cells, TR agonist luciferase, 24 h; activation: at 83.9 µM (top of the series) unless noted"}, "[12]": {"target": "Aromatase (Homo sapiens) (UniProt P11511)", "sequence (P11511 whole entry, looked up)": "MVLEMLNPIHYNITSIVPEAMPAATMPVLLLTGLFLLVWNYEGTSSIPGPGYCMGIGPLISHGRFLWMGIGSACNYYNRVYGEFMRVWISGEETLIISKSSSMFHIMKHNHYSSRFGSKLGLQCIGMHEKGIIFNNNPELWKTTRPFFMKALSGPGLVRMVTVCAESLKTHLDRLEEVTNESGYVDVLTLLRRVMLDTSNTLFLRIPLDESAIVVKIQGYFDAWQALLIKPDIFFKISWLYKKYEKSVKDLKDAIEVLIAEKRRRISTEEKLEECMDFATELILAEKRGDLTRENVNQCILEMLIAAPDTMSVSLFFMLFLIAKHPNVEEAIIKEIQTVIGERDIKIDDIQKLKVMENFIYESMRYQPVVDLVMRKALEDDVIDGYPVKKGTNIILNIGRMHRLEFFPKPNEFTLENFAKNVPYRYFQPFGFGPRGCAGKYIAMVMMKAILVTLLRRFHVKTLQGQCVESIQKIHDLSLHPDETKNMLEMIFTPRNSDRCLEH", "test": "qHTS assay to identify aromatase inhibitors (AID 743083); also: nearly all actives have a fitted effect of over 55% in size", "conditions": "MCF-7 aro ERE, testosterone-driven ERE luciferase, 24 h; activity, negative = inhibition: at 70.3 µM (top of the series)"}, "[13]": {"target": "Aryl hydrocarbon receptor (Homo sapiens) (UniProt P35869)", "sequence (P35869 whole entry, looked up)": "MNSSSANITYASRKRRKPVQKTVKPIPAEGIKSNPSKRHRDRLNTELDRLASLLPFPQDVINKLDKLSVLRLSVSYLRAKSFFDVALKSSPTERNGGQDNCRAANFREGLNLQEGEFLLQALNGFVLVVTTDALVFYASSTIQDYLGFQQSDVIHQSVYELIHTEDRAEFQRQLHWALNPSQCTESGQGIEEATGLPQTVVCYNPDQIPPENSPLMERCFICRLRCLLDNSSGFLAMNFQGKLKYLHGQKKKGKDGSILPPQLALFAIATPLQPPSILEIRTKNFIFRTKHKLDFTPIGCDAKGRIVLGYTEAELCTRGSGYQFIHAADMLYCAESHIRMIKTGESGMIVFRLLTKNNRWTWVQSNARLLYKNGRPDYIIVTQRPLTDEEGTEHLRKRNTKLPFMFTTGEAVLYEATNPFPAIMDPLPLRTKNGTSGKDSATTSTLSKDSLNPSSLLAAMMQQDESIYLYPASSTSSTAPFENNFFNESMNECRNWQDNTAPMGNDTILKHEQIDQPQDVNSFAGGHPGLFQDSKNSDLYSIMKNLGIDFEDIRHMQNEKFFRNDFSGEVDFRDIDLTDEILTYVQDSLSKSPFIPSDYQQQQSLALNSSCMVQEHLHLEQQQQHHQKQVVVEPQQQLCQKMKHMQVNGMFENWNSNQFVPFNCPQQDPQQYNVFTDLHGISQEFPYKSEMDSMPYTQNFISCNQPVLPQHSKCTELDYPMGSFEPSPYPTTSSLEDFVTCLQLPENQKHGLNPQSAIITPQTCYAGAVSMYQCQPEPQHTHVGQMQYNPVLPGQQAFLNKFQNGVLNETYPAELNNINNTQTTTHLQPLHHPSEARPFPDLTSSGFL", "test": "qHTS assay to identify small molecule that activate the aryl hydrocarbon receptor (AhR) signaling pathway (AID 743085); also: nearly all actives have a fitted effect of over 15% in size", "in_short": "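HepG2 cells stably carrying a 20-DRE firefly luciferase reporter (HG2L7.5c1) treated with compound for 24 hr at 37C. Luciferase read by ONE-Glo luminescence, with CellTiter-Fluor viability read first.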"}, "[14]": {"target": "Estrogen receptor (Homo sapiens) (UniProt P03372)", "test": "qHTS assay to identify small molecule agonists of the estrogen receptor alpha (ER-alpha) signaling pathway (AID 743075; calls by dose curve)"}, "[15]": {"conditions": "activation: at 57 µM (top of the series) unless noted"}}, "note": "Values joined by “and” are separate entries in the source; they are usually repeats but may differ in a detail not shown here. Identical values can stand only once. The source holds several records for some structures; these can differ, active in one and inactive in another. Active and inactive are the calls of the source. Unless noted, calls follow the shape of the dose curve; as a rule, active = well fitted curve in the direction sought with a large enough effect in the repeat runs; inconclusive = weak or mixed curves; inactive = no such curve, though single readings can be large; an effect the other way counts as inactive or inconclusive. Potency is read from the fitted curve at half-maximal effect; tags tell the direction and shape of the fitted curve or compound fluorescence and quenching.", "data": [{"compound": "O=S(=O)(c1ccc(Cl)cc1)c1cc(Cl)c(Cl)cc1Cl", "values": [{"measurement": "Potency", "setting": "[1]", "value": "inconclusive: 61.1 µM [cytotoxic, partial curve]"}, {"measurement": "Potency", "setting": "[2]", "value": "inconclusive: 68.6 µM [inhibitor, single point]"}, {"measurement": "Potency", "setting": "[3]", "value": "inconclusive: 49 µM [inhibitor]"}, {"measurement": "Potency", "setting": "[4]", "value": "inconclusive: 21.8 µM [rising, single point]"}, {"measurement": "Potency", "setting": "[5]", "value": "inconclusive: 54.5 µM [inhibitor]"}, {"measurement": "activation", "setting": "[5]", "value": "inconclusive: 22.4% [phenotype inactive]"}, {"measurement": "Potency", "setting": "[6]", "value": "active: 48.6 µM"}, {"measurement": "activity change, negative = inhibition", "setting": "[6]", "value": "inconclusive: 0.951%"}, {"measurement": "activation", "setting": "[7]; [15]", "value": "inconclusive: -10.8%"}]}, {"compound": "CC(=O)C=C(C)C", "values": [{"measurement": "activity, negative = inhibition", "setting": "[3]; at 69.4 µM (top of the series)", "value": "inactive: 6.86%"}]}, {"compound": "Nc1ccc(Cl)cc1", "values": [{"measurement": "activation", "setting": "[7]; at 57 µM (top of the series)", "value": "inconclusive: -8.64%"}, {"measurement": "activation", "setting": "[7]; at 78.9 µM (top of the series)", "value": "inconclusive: -13.8%"}]}, {"compound": "CC[C@H]1C[C@H]2[C@@H]3CCC4=CC(=O)CC[C@@H]4[C@H]3CC[C@]2(C)[C@H]1O", "values": [{"measurement": "Potency", "setting": "[8]", "value": "inconclusive: 29.8 µM [rising, partial curve]"}]}, {"compound": "OCC1CO1", "note": "(centres undefined)", "values": [{"measurement": "Potency", "setting": "[9]", "value": "inactive"}]}, {"compound": "COC(=O)C(C)Oc1ccc(Oc2ccc(Cl)cc2Cl)cc1", "note": "(centres undefined)", "values": [{"measurement": "Potency", "setting": "[10]", "value": "inactive"}]}, {"compound": "CSC(=O)c1c(C(F)F)nc(C(F)(F)F)c(C(=O)SC)c1CC(C)C", "values": [{"measurement": "Potency", "setting": "[10]", "value": "inconclusive: 0.483 µM [rising, full curve]"}]}, {"compound": "CCC(COC(=O)c1cc(OC)c(OC)c(OC)c1)(c1ccccc1)N(C)C", "note": "(centres undefined)", "values": [{"measurement": "Potency", "setting": "[2]", "value": "inconclusive: 13.3 µM [inhibitor, partial curve, poor fit]"}, {"measurement": "Potency", "setting": "[10]", "value": "inactive"}]}, {"compound": "N#CCc1ccccc1", "values": [{"measurement": "Potency", "setting": "[2]", "value": "inactive"}, {"measurement": "Potency", "setting": "[4]", "value": "inactive"}, {"measurement": "Potency", "setting": "[5]", "value": "inactive"}, {"measurement": "Potency", "setting": "[9]", "value": "inactive"}]}, {"compound": "[O-][Cl+]O", "values": [{"measurement": "Potency", "setting": "[11]", "value": "inactive"}, {"measurement": "Potency", "setting": "[4]", "value": "inconclusive: 11 µM [rising, partial curve, poor fit]"}, {"measurement": "Potency", "setting": "[5]", "value": "inactive"}]}, {"compound": "c1ccc(-c2cccc(-c3ccccc3)c2)cc1", "values": [{"measurement": "Potency", "setting": "[2]", "value": "inconclusive: 49.1 µM [inhibitor, partial curve]"}, {"measurement": "Potency", "setting": "[5]", "value": "active: 21.9 µM and active: 10.9 µM"}]}, {"compound": "CCCCNP(N)(N)=S", "values": [{"measurement": "Potency", "setting": "[2]", "value": "inactive"}, {"measurement": "Potency", "setting": "[5]", "value": "inconclusive: 61.1 µM [activator, partial curve]"}]}, {"compound": "CC(Cc1ccc(OCC(=O)O)cc1)NCC(O)c1csc(C(F)(F)F)n1", "note": "(centres undefined)", "values": [{"measurement": "Potency", "setting": "[11]", "value": "active: 77 µM"}, {"measurement": "Potency", "setting": "[5]", "value": "inactive"}, {"measurement": "Potency", "setting": "[9]", "value": "inconclusive: 61.1 µM [cytotoxic, partial curve]"}]}, {"compound": "CC(Cc1ccc2c(c1)OCO2)NO", "note": "(centres undefined)", "values": [{"measurement": "Potency", "setting": "[2]", "value": "inactive"}, {"measurement": "Potency", "setting": "[5]", "value": "inactive"}, {"measurement": "Potency", "setting": "[7]; [15]", "value": "inactive"}]}, {"compound": "CCN(CC)c1nc(C)cc(OP(=S)(OC)OC)n1", "values": [{"measurement": "Potency", "setting": "[2]", "value": "active: 61.1 µM"}, {"measurement": "Potency", "setting": "[6]", "value": "inactive"}, {"measurement": "Potency", "setting": "[12]", "value": "inconclusive: 43.3 µM [inhibitor, partial curve]"}, {"measurement": "Potency", "setting": "[13]", "value": "inconclusive: 4.86 µM [activator, full curve, poor fit]"}]}, {"compound": "CCn1cc[n+](C)c1", "values": [{"measurement": "Potency", "setting": "[11]", "value": "active: 49.2 µM"}]}, {"compound": "CCCCCc1cc(O)cc(O)c1", "values": [{"measurement": "Potency", "setting": "[2]", "value": "inconclusive: 68.9 µM [inhibitor, single point] and inconclusive: 68.6 µM [inhibitor, single point]"}, {"measurement": "activation", "setting": "[7]; [15]", "value": "inconclusive: -13.9%"}]}, {"compound": "O=[N+]([O-])c1ccc(Oc2ccc(C(F)(F)F)cc2[N+](=O)[O-])cc1", "values": [{"measurement": "Potency", "setting": "[2]", "value": "inconclusive: 54.5 µM [inhibitor]"}, {"measurement": "activation", "setting": "[5]", "value": "inconclusive: -0.838% [phenotype inactive]"}, {"measurement": "activity change, negative = inhibition", "setting": "[6]", "value": "inconclusive: -0.562%"}, {"measurement": "Potency", "setting": "[13]", "value": "active: 30.6 µM"}]}, {"compound": "CCCCN(CCCC)C(=S)[S-].CCCCN(CCCC)C(=S)[S-].[Zn+2]", "values": [{"measurement": "Potency", "setting": "[11]", "value": "inconclusive: 5.96 µM [inhibitor] and inconclusive: 3.06 µM [inhibitor, partial curve, poor fit]"}, {"measurement": "Potency", "setting": "[4]", "value": "active: 19 µM and active: 12.3 µM"}, {"measurement": "Potency", "setting": "[14]", "value": "active: 30.1 µM [inconclusive] and inconclusive: 48.9 µM"}, {"measurement": "Potency", "setting": "[5]", "value": "inconclusive: 13.3 µM [inhibitor, full curve] and inconclusive: 9.68 µM [inhibitor, full curve]"}, {"measurement": "Potency", "setting": "[8]", "value": "active: 21.1 µM and active: 38.5 µM"}, {"measurement": "Potency", "setting": "[9]", "value": "inconclusive: 10.9 µM [cytotoxic, full curve]"}, {"measurement": "Potency", "setting": "[7]; [15]", "value": "inactive and active: 30.9 µM"}]}, {"compound": "c1ccc(N=Nc2ccccc2)cc1", "values": [{"measurement": "Potency", "setting": "[2]", "value": "inactive"}, {"measurement": "Potency", "setting": "[8]", "value": "inactive"}, {"measurement": "Potency", "setting": "[12]", "value": "inactive"}]}, {"compound": "COc1cccc(C=O)c1", "values": [{"measurement": "Potency", "setting": "[11]", "value": "inactive"}, {"measurement": "Potency", "setting": "[3]", "value": "inactive"}, {"measurement": "Potency", "setting": "[7]; [15]", "value": "inactive"}]}, {"compound": "CC(=O)C(Cl)C(=O)N(C)C", "note": "(centres undefined)", "values": [{"measurement": "Potency", "setting": "[2]", "value": "inconclusive: 68.6 µM [inhibitor]"}, {"measurement": "Potency", "setting": "[10]", "value": "inactive"}]}, {"compound": "CCOP(=O)(OCC)SCCSCC", "values": [{"measurement": "Potency", "setting": "[2]", "value": "inactive"}, {"measurement": "activation", "setting": "[5]", "value": "inconclusive: 14.6% [phenotype inactive]"}]}, {"compound": "CCCC[n+]1ccccc1", "values": [{"measurement": "Potency", "setting": "[11]", "value": "inconclusive: 26.3 µM [activator, partial curve, poor fit]"}]}]}
